Measured values from the supplement of paper PMC12355420.
Structures can show the parent of a compound that is named as a salt. Some of the results follow. No stated cut-off is given here; in the data, active = 0.5 or less and inactive = the rest. Most values come without repeats; read them as rough.

Key:
Conditions in all cases: 50 µM; 24 h
[1] = tested on: HeLa VPS33A reporter cells; assay: relative cell viability (CellMask signal) vs DMSO (fraction of DMSO); higher = less cytotoxic;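 further: primary screen of an FDA-approved drug library in HeLa reporter cells in 96-well format, CellMask signal normalized to DMSO-treated wells set as 1, under 0.5 deemed highly cytotoxic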
[2] = tested on: HeLa VPS33A R498W KI + HA-SDC1-FLAG; assay: relative GAG core protein HA-SDC1 amount per cell number vs DMSO (fraction of DMSO); higher = more SDC1 (GAG core protein);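 further: HA-SDC1 level read out by In-Cell Western staining with an anti-HA antibody against the N-terminal tag, screening FDA-approved library drugs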
[3] = tested on: HeLa VPS33A KO + NLuc-VPS33A R498W; assay: relative mutant VPS33A R498W amount (NanoLuc luminescence) vs DMSO (fraction of DMSO); HeLa model of a glycosaminoglycan (GAG) storage disease; KI is knock-in and KO knock-out; SDC1 is syndecan 1; higher = higher mutant VPS33A level;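 further: screen of an FDA-approved drug library, NanoLuc luminescence read after lysing the treated cells, taken as a measure of mutant VPS33A protein stability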

SMILES | relative cell viability [1] | relative GAG core protein HA-SDC1 amount per cell number [2] | relative mutant VPS33A R498W amount [3]
COC(=O)C1=C(C)NC(C)=C(C(=O)OCCN2CCN(C(c3ccccc3)c3ccccc3)CC2)C1c1cccc([N+](=O)[O-])c1 (centres undefined) [Manidipine 2HCl] | 0.983 | active: 0.282 | 0.815
O=C(O)COCCN1CCN(C(c2ccccc2)c2ccc(Cl)cc2)CC1 (centres undefined) [Cetirizine DiHCl] | 0.984 | inactive: 1.1 | 1.31
NC(CO)C(=O)NNCc1ccc(O)c(O)c1O (centres undefined) [Benserazide HCl] | 1.3 | inactive: 0.606 | 1.42
Nc1ccn(C[C@@H](CO)OCP(=O)(O)O)c(=O)n1 [Cidofovir] | 1.02 | inactive: 1.43 | 1.07
O=C(O)c1ccc(-n2nc(-c3ccccc3O)nc2-c2ccccc2O)cc1 [Deferasirox] | 1.28 | inactive: 0.73 | 0.761
O=c1ccn([C@@H]2O[C@H](CO)[C@@H](O)[C@H]2O)c(=O)[nH]1 [Uridine] | 1.05 | inactive: 0.952 | 1.21
CNC[C@@H](O)c1ccc(O)c(O)c1 [L-Adrenaline] | 0.762 | inactive: 0.83 | 1.36
[Cl-].[Cs+] [Cesium chloride] | 1 | inactive: 1.63 | 1.32
